# Source: the supplement of paper PMC12217912
# This is one part of the list. Sequences were assembled here from the parent chain. Inactive controls read about 0.05.
# B1: TEV protease; numbered along this chain (parent)
# chain: MGESLFKGPRDYNPISSSICHLTNESDGHTTSLYGIGFGPFIITNKHLFRRNNGTLVVQSLHGVFKVKDTTTLQQHLVDGRDMIIIRMPKDFPPFPQKLKFREPQREERICLVTTNFQTKSMSSMVSDTSCTFPSGDGIFWKHWIQTKDGQCGSPLVSTRDGFIVGIHSASNFTNTNNYFTSVPKNFMELLTNQEAQQWVSGWRLNADSVLWGGHKVFMVKPEEPFQPVKEATQL
# Variants of: B1
# Assay: raw area under fraction-flipped curve 0-4 h after induction (AUC4h, not background-subtracted), DNA-recorder readout of cleavage of the substrate (dimensionless); higher = more cleavage of the substrate by the protease variant
# Conditions: temperature: 34 °C; time window: 0-4 h after rhamnose induction
# 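Further: Bxb1 expression induced with 0.2% (w/v) L-rhamnose at OD600 near 0.5, cultures sampled hourly, flipped fraction per protease–substrate barcode pair counted by paired-end Illumina sequencing.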
Variant,area with substrate ENGYFQS,area with substrate ENQYFQS,area with substrate ENSYFQS,area with substrate ENTYFQS,area with substrate ENDYFQS,area with substrate ENPYFQS,area with substrate ENEYFQS,area with substrate ENFYFQS,area with substrate ENNYFQS,area with substrate ENRYFQS
R50N,0.0522,0.0604,0.0437,0.0894,–,–,–,–,–,–
W212A,0.0802,–,–,–,0.0496,0.0497,–,–,–,–
W212N,–,0.0383,–,–,–,–,–,–,–,–
F92G,–,0.0588,–,–,–,–,0.0713,–,–,–
F92K,–,–,–,0.0613,–,–,0.0651,0.0525,0.0504,0.0952
D79E,–,0.0577,0.0451,0.0722,–,–,–,–,0.0592,–
D79Q,–,–,0.0854,–,–,–,–,–,–,–
D137T,–,0.005,0.0562,–,0.0409,–,–,–,–,–
E223D,0.042,–,–,–,–,–,–,–,–,–
Q198P,–,0.0449,–,0.0545,0.0565,–,0.0581,0.0425,0.0714,0.0556
T129H,–,0.0767,0.0557,–,0.0598,0.0498,0.0643,–,–,–
S158E,–,0.057,0.0517,–,0.0688,0.0595,–,–,–,–
S158L,–,–,–,–,0.0525,–,–,–,0.0521,0.045
G8L,0.0588,0.0638,–,0.0525,–,–,–,0.0552,–,0.0669
N206L,–,–,0.0663,–,–,–,–,–,–,–
N206P,–,0.0661,–,–,0.04,–,0.0354,–,0.0672,0.0438
N116T,–,–,0.0691,–,0.0701,–,–,–,–,–
V57E,–,0.0572,0.0607,0.058,–,–,0.066,–,–,0.0504
F95L,0.0486,0.0594,–,–,0.0526,–,–,–,0.0954,0.0628

Variant,area with substrate ENGYFQS,area with substrate ENQYFQS,area with substrate ENSYFQS,area with substrate ENTYFQS,area with substrate ENDYFQS,area with substrate ENPYFQS,area with substrate ENEYFQS,area with substrate ENFYFQS,area with substrate ENNYFQS,area with substrate ENRYFQS
K185L,0.0579,0.0442,0.0651,–,0.0453,–,–,–,–,–
G213C,0.0498,–,0.0511,–,–,0.0507,–,0.0487,–,0.0574
G213T,0.0561,0.06,0.061,0.0607,–,–,0.0484,0.0625,0.063,0.0537
A170R,–,0.056,0.0568,–,–,–,–,–,–,–
A170F,–,0.0545,–,0.0386,–,–,–,–,–,–
A170Q,–,–,0.0495,–,–,–,–,–,0.0538,–
T159P,–,–,–,0.0737,0.0631,0.0824,0.0496,–,–,–
R106N,–,0.0105,0.0659,–,0.059,–,0.0602,–,–,–
K100D,–,0.0514,–,0.0591,0.0604,0.0504,0.058,0.059,0.0516,–
F163A,–,–,–,0.0708,–,–,–,–,–,–
F163P,–,0.0621,0.0479,–,–,0.0892,–,–,–,–
F163K,–,–,0.0934,–,–,–,–,0.0646,–,–
N186H,–,–,0.054,0.054,–,–,0.0705,–,–,–
H76G,–,0.0632,–,0.0554,–,–,0.0725,–,–,–
D82M,–,0.0559,–,–,–,–,0.0698,0.0575,0.0693,–
R102E,0.0453,0.044,0.0681,0.0529,0.0635,0.0408,–,–,–,0.0411
S182V,–,0.0549,0.0691,–,–,–,–,–,–,–
P93W,–,–,0.0608,–,–,–,–,–,–,–
P93D,0.0598,–,0.0582,–,0.0426,0.0735,0.0612,–,0.0649,–

Variant,area with substrate ENGYFQS,area with substrate ENQYFQS,area with substrate ENSYFQS,area with substrate ENTYFQS,area with substrate ENDYFQS,area with substrate ENPYFQS,area with substrate ENEYFQS,area with substrate ENFYFQS,area with substrate ENNYFQS,area with substrate ENRYFQS
P93K,–,–,–,0.0507,–,0.0479,–,–,0.0398,–
F226V,–,–,0.0758,–,–,–,0.0623,0.0602,0.0424,–
F6A,0.0633,0.0723,–,–,–,0.0567,0.0626,–,0.07,–
L191Q,–,–,–,0.0482,0.0678,–,–,–,0.0491,–
F65V,–,0.0694,–,–,0.0607,–,–,–,–,–
N193K,0.0445,0.0745,–,–,0.0456,–,–,0.0455,–,–
R109Y,–,0.0686,0.0591,0.0817,0.0231,–,0.0702,–,–,0.0642
M88L,–,0.0577,0.0689,0.0598,0.053,0.0598,0.0608,–,–,0.0378
G2S,–,0.0485,–,–,–,–,0.0742,–,–,–
D91E,–,–,0.0609,–,–,–,–,0.0613,–,0.067
D91T,–,0.0811,–,0.0617,0.0553,–,–,–,0.0637,–
I86C,–,0.0648,0.0538,0.0555,–,–,0.0858,–,0.0383,0.0664
N172L,–,–,–,–,0.0644,–,–,–,–,–
N172W,–,–,–,–,0.0634,–,–,0.0457,–,–
L205Y,0.0302,0.0618,0.0658,0.0619,–,0.0379,0.0595,0.0474,0.0716,0.0468
L211I,0.0825,–,–,–,0.0691,–,–,0.0336,0.0516,–
G153S,–,0.0421,–,–,–,–,–,–,0.0529,–
G153Q,–,–,–,0.0542,–,–,–,–,–,–
T147S,–,–,0.0526,–,–,–,–,–,–,–

# Same assay, conditions: temperature: 34 °C; time window: 0-4 h after rhamnose induction
Variant,area with substrate ENWYFQS,area with substrate ENVYFQS,area with substrate ENHYFQS,area with substrate ENMYFQS,area with substrate ENKYFQS,area with substrate ENYYFQS,area with substrate ENIYFQS
F92K,0.0252,–,–,–,–,–,–
D79E,–,0.0751,–,–,–,–,–
E223A,–,0.0824,0.0544,–,–,–,–
Q198P,–,–,0.0895,0.0639,–,–,–
T129H,–,–,–,–,0.0577,–,–
G8L,–,0.0785,–,–,–,–,–
N206P,–,0.0742,–,–,0.0458,–,–
N116T,–,–,–,0.066,–,–,–
V57E,0.104,–,0.0681,–,–,0.0527,–
K185L,–,0.0627,0.0597,–,0.064,–,0.112
G213C,0.0732,0.045,–,0.0602,–,0.0596,–
G213T,–,–,0.0513,–,–,–,0.0608
A170R,0.0373,–,–,–,–,–,–
A170I,–,0.0646,–,–,–,–,–
A170F,–,–,–,–,0.0512,–,–
T159P,–,–,–,–,–,0.0604,0.147
R106N,–,0.0771,0.0578,–,–,0.0774,–
K100D,–,0.0711,–,–,0.0692,–,–
F163A,–,0.0537,–,–,–,–,–
F163P,–,0.0468,–,–,–,–,0.039

Variant,area with substrate ENWYFQS,area with substrate ENVYFQS,area with substrate ENHYFQS,area with substrate ENMYFQS,area with substrate ENKYFQS,area with substrate ENYYFQS,area with substrate ENIYFQS
F163K,0.0723,–,–,–,–,–,–
R81P,0.0383,–,–,–,–,–,–
D82M,0.0397,0.0558,0.0563,0.0514,–,–,0.0566
R102E,0.0336,0.0464,0.0571,–,0.0592,0.0531,–
S182V,–,0.08,0.0573,–,–,–,–
P93D,0.0547,0.0812,0.0329,–,–,0.0463,–
F226V,–,–,–,–,–,0.0515,–
F6A,–,0.0684,–,–,0.0598,–,–
Q227A,–,–,–,–,0.0723,–,0.101
L191Q,–,0.0348,0.0706,0.0746,0.054,0.0494,–
F65V,–,–,–,–,–,0.056,–
N193K,–,–,–,–,–,–,0.156
R109Y,–,–,0.0661,–,0.0601,–,0.0975
M88L,–,0.0849,–,–,0.0613,–,–
D91T,–,–,0.0481,–,–,–,–
I86C,–,–,–,0.0041,0.0613,–,0.0807
L205Y,–,–,0.0546,0.0585,–,–,0.0719
L211I,–,0.0741,–,–,–,–,–
G153S,–,–,0.0628,–,–,–,–
G153Q,–,–,0.0552,–,–,–,–
